Laboratory results from PubChem BioAssay (NCI).
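Where inhibition never reached the appropriate level, the endpoint shown equals the highest concentration tested. Otherwise, values were interpolated linearly from a five-concentration, 48-hour dose response in 96-well plates. GI50 marks 50% less growth. TGI: total growth inhibition.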 Numbered stars: 1 amine (or outer) side, 2 acyl side, 3 side chain; on linkers, the order of the positions; unused ones are H or OH. Square brackets hold non-standard residues; d marks the D form. Peptide text beside a SMILES is read from it. * marks the point of attachment. X9 = C/C=C/CC(C)C(O)[C@H](N[*:1])C(=O)[*:2]; Decanoyl = CCCCCCCCCC(=O)*; Leu(ol) = CC(C)C[C@H](N)CO; Iva = CC[C@](C)(N)C(=O)O; Aib = CC(C)(N)C(=O)O

Tested on: NCI-H322M lung
Test: NCI-60 cell line screen, 48 h

Molecule `COC(=O)N1CCN(CCNCc2ccc(NC(=O)c3ccc(C)c(C#Cc4cnc5cccnn45)c3)cc2C(F)(F)F)CC1` has a GI50 of 2.42 µM and a TGI of 6.82 µM.
In the case of `C/C=C/CC(C)C(O)[C@H](NC(=O)[C@@H]1CCCN1C(=O)[C@](C)(CC)NC(=O)CCCCCCCCC)C(=O)N[C@@](C)(CC)C(=O)N[C@@H](CCC(N)=O)C(=O)N[C@H](CCC(N)=O)C(=O)NC(C)(C)C(=O)NC(C)(C)C(=O)N[C@@H](CCC(N)=O)C(=O)N[C@H](CC(C)C)C(=O)N[C@H](CO)CC(C)C` (stereo partly drawn) (Decanoyl-[Iva]P[X9][Iva]Q[dQ][Aib][Aib]Q[dL][Leu(ol)]), the GI50 is reported as 1.71 µM and the TGI is reported as 3.32 µM.
For `CNCCN(C)c1ccc(Nc2cc(NC3CC3)n3ncc(C#N)c3n2)cc1NC(C)=O`, the GI50 was 0.0188 µM.
For `C[C@@H]1CCC/C=C/[C@H]2C[C@@H](O)C[C@@H]2[C@@H](O)/C=C/C(=O)O1`, the GI50 was 0.152 µM and the TGI was over 33.3 µM.
`NS(=O)(=O)c1ccc(Nc2nc(N/N=C/c3ccc(C(F)(F)F)cc3)nc(Nc3ccccc3)n2)cc1` showed a GI50 of 3.31 µM and a TGI of 12 µM.
